By IC50 is meant the dose at which the fit gives 50% viability; a limit (>, <) means that the fit lies beyond the doses tested. AUC, from the same fit, is the share of area under the viability curve across the 256-fold dose range: 1 means no effect, lower means more sensitive. For part of these data: A top dose marked as inferred is not printed in the source and was worked back from the curve model.
What was measured:
Experiment in all cases: Viability of human cancer cell lines after 72 h of drug (GDSC screen)
Dimethyloxalylglycine = compound: COC(=O)CNC(=O)C(=O)OC [Dimethyloxalylglycine]; settings: top dose 4000 µM; top dose inferred
Method: (§1)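 Human cancer cell lines in 384-well plates, medium with 10% serum, drug for 72 h over a 256-fold dose range (nine 2-fold or five 4-fold steps up to the top dose). Adherent lines were fixed and stained with the nucleic acid dye Syto60, suspension lines read with resazurin; signal relative to control wells, capped at 0 and 100%. One two-parameter sigmoid per drug and line, fitted in a mixed model over all curves with the slope shared within a line.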

VX-11e = compound: Cc1cnc(Nc2ccc(F)cc2Cl)nc1-c1c[nH]c(C(=O)N[C@H](CO)c2cccc(Cl)c2)c1 [VX-11e]; settings: top dose 5.12 µM; top dose inferred
Method: as §1

TG101348 = compound: Cc1cnc(Nc2ccc(OCCN3CCCC3)cc2)nc1Nc1cccc(S(=O)(=O)NC(C)(C)C)c1 [TG101348]; settings: top dose 10.24 µM
Method: as §1

UNC1215 = compound: O=C(c1ccc(C(=O)N2CCC(N3CCCC3)CC2)c(Nc2ccccc2)c1)N1CCC(N2CCCC2)CC1 [UNC1215]; settings: top dose 1 µM; top dose inferred
Method: as §1

BIX02189 = compound: CN(C)Cc1cccc(N=C(c2ccccc2)c2c(O)[nH]c3cc(C(=O)N(C)C)ccc23)c1 [BIX02189]; settings: top dose 20 µM; top dose inferred
Method: as §1

CCT018159 = compound: CCc1cc(-c2n[nH]c(C)c2-c2ccc3c(c2)OCCO3)c(O)cc1O [CCT018159]; settings: top dose 10 µM; top dose inferred
Method: as §1

17-AAG = compound: C=CCNC1=C2C[C@@H](C)C[C@H](OC)[C@H](O)[C@@H](C)/C=C(\C)[C@H](OC(N)=O)[C@@H](OC)/C=C\C=C(/C)C(=O)NC(=CC1=O)C2=O [17-AAG]; settings: top dose 1 µM
Method: as §1

OSI-027 = compound: COc1cccc2cc(-c3nc([C@H]4CC[C@H](C(=O)O)CC4)n4ncnc(N)c34)[nH]c12 [OSI-027]; settings: top dose 20 µM
Method: as §1

Vismodegib = compound: CS(=O)(=O)c1ccc(C(=O)Nc2ccc(Cl)c(-c3ccccn3)c2)c(Cl)c1 [Vismodegib]; settings: top dose 10 µM; top dose inferred
Method: as §1

Doxorubicin = compound: COc1cccc2c1C(=O)c1c(O)c3c(c(O)c1C2=O)C[C@@](O)(C(=O)CO)C[C@@H]3O[C@H]1C[C@H](N)[C@H](O)[C@H](C)O1 [Doxorubicin]; settings: top dose 1.024 µM
Method: as §1

Cell Line | AUC (Dimethyloxalylglycine) | IC50 (Dimethyloxalylglycine) [µM] | AUC (VX-11e) | IC50 (VX-11e) [µM] | AUC (TG101348) | IC50 (TG101348) [µM] | AUC (UNC1215) | IC50 (UNC1215) [µM] | AUC (BIX02189) | IC50 (BIX02189) [µM] | AUC (CCT018159) | IC50 (CCT018159) [µM] | AUC (17-AAG) | IC50 (17-AAG) [µM] | AUC (OSI-027) | IC50 (OSI-027) [µM] | AUC (Vismodegib) | IC50 (Vismodegib) [µM] | AUC (Doxorubicin) | IC50 (Doxorubicin) [µM]
NCI-H2023 (lung adenocarcinoma, adherent) | 0.648 | 717 | 0.973 | > 5.12 | 0.966 | > 10.2 | 0.977 | > 1 | 0.972 | > 20 | 0.837 | 9.22 | 0.624 | 0.15 | 0.909 | > 20 | 0.902 | > 10 | 0.733 | 0.355
SU-DHL-4 (B-cell lymphoma, suspension) | 0.449 | 189 | 0.933 | 4.25 | 0.916 | 7.35 | 0.997 | > 1 | 0.944 | 18.4 | 0.997 | > 10 | 0.997 | > 1 | 0.292 | 0.393 | 0.997 | > 10 | 0.735 | 0.237
HO-1-u-1 (head and neck, adherent) | 0.447 | 180 | 0.98 | > 5.12 | 0.942 | > 10.2 | 0.987 | > 1 | 0.984 | > 20 | 0.902 | > 10 | 0.407 | 0.0352 | 0.688 | 4.09 | 0.96 | > 10 | 0.601 | 0.12
YT (lymphoid neoplasm, suspension) | 0.142 | 24.9 | 0.886 | 4.19 | 0.617 | 1.27 | 0.986 | > 1 | 0.952 | > 20 | 0.957 | > 10 | 0.819 | 0.462 | 0.051 | < 0.0781 | 0.944 | > 10 | 0.881 | 0.792
MRK-nu-1 (breast, suspension) | 0.733 | 1080 | 0.974 | > 5.12 | 0.988 | > 10.2 | 0.989 | > 1 | 0.946 | > 20 | 0.973 | > 10 | 0.988 | > 1 | 0.126 | 0.0933 | 0.979 | > 10 | 0.438 | –
NCI-SNU-1 (stomach, suspension) | 0.894 | > 4000 | 0.791 | 2.39 | 0.733 | 3.03 | 0.978 | > 1 | 0.86 | 17.7 | 0.984 | > 10 | 0.92 | > 1 | 0.635 | 2.99 | 0.981 | > 10 | 0.504 | 0.0655
NCI-H526 (small cell lung carcinoma, suspension) | 0.618 | 520 | 0.976 | > 5.12 | 0.692 | 2.14 | 0.988 | > 1 | 0.942 | > 20 | 0.925 | > 10 | 0.963 | > 1 | 0.377 | 0.583 | 0.971 | > 10 | 0.455 | 0.0485
FU-OV-1 (ovary, adherent) | 0.841 | > 4000 | 0.905 | > 5.12 | 0.645 | 1.84 | 0.976 | > 1 | 0.937 | > 20 | 0.935 | > 10 | 0.916 | > 1 | 0.729 | 7.02 | 0.958 | > 10 | 0.845 | > 1.02
COLO-320-HSR (large intestine, suspension) | 0.821 | 1920 | 0.974 | > 5.12 | 0.924 | > 10.2 | 0.986 | > 1 | 0.893 | 18.3 | 0.898 | 9.66 | 0.992 | > 1 | 0.845 | 11.7 | 0.983 | > 10 | 0.818 | 0.482
CHL-1 (melanoma, adherent) | 0.672 | 731 | 0.946 | > 5.12 | 0.81 | 5.01 | 0.986 | > 1 | 0.899 | > 20 | 0.89 | > 10 | 0.33 | 0.0216 | 0.164 | 0.128 | 0.949 | > 10 | 0.386 | 0.0318
LC4-1 (lymphoblastic leukaemia, suspension) | 0.334 | 81.6 | 0.879 | > 5.12 | 0.493 | 0.609 | 0.982 | > 1 | 0.82 | 13.1 | 0.985 | > 10 | 0.985 | > 1 | 0.136 | < 0.0781 | 0.985 | > 10 | 0.688 | 0.23
TE-6 (oesophagus, adherent) | 0.718 | 1170 | 0.927 | > 5.12 | 0.886 | > 10.2 | 0.983 | > 1 | 0.96 | > 20 | 0.92 | > 10 | 0.694 | 0.242 | 0.865 | > 20 | 0.986 | > 10 | 0.792 | 0.552
NCI-SNU-16 (stomach, suspension) | 0.952 | > 4000 | 0.991 | > 5.12 | 0.947 | > 10.2 | 0.986 | > 1 | 0.99 | > 20 | 0.988 | > 10 | 0.81 | 0.452 | 0.965 | > 20 | 0.981 | > 10 | 0.982 | > 1.02
SW954 (urogenital system, adherent) | 0.358 | 101 | 0.864 | 4.59 | 0.846 | 7.61 | 0.982 | > 1 | 0.903 | > 20 | 0.793 | 4.64 | 0.745 | 0.319 | 0.356 | 0.498 | 0.965 | > 10 | 0.294 | 0.0166
KP-1N (pancreas, adherent) | 0.636 | 604 | – | – | – | – | 0.979 | > 1 | – | – | 0.907 | > 10 | 0.943 | > 1 | – | – | 0.984 | > 10 | 0.561 | 0.0946
IM-9 (myeloma, suspension) | 0.875 | 3010 | – | – | – | – | 0.982 | > 1 | – | – | 0.986 | > 10 | 0.976 | > 1 | – | – | 0.97 | > 10 | 0.48 | 0.057
KARPAS-231 (B-cell leukaemia, suspension) | 0.275 | 68.8 | – | – | 0.512 | 0.684 | 0.991 | > 1 | – | – | 0.889 | 6.84 | 0.94 | > 1 | 0.012 | < 0.0781 | 0.907 | 8.06 | 0.468 | 0.0534
Ramos-2G6-4C10 (Burkitt lymphoma, suspension) | 0.412 | 149 | 0.97 | > 5.12 | 0.852 | 6.23 | 0.98 | > 1 | 0.88 | 15.5 | 0.933 | > 10 | 0.99 | > 1 | – | – | 0.857 | 6.33 | 0.756 | 0.305
LN-229 (glioma, adherent) | 0.422 | 154 | 0.98 | > 5.12 | 0.955 | > 10.2 | 0.986 | > 1 | 0.988 | > 20 | 0.938 | > 10 | 0.694 | 0.219 | – | – | 0.986 | > 10 | 0.69 | –
EHEB (lymphoid neoplasm, suspension) | 0.52 | 290 | – | – | – | – | 0.962 | > 1 | – | – | 0.897 | > 10 | 0.899 | > 1 | – | – | 0.973 | > 10 | 0.582 | 0.118
MOLM-13 (acute myeloid leukaemia, suspension) | 0.342 | 93.7 | 0.735 | 1.42 | – | – | 0.974 | > 1 | 0.404 | 0.693 | 0.804 | 4.64 | 0.871 | 0.844 | 0.178 | 0.146 | 0.976 | > 10 | 0.471 | 0.0538
KMRC-1 (kidney, adherent) | 0.717 | 1070 | 0.9 | > 5.12 | 0.936 | > 10.2 | – | – | 0.971 | > 20 | 0.957 | > 10 | 0.802 | 0.528 | 0.876 | > 20 | 0.983 | > 10 | 0.857 | 0.91
AGS (stomach, adherent) | 0.646 | 605 | 0.788 | 2 | 0.888 | 9.5 | – | – | 0.976 | > 20 | 0.824 | 5.16 | 0.314 | 0.0201 | 0.898 | > 20 | 0.988 | > 10 | 0.277 | 0.0161
KYSE-410 (oesophagus, adherent) | 0.191 | 27.7 | 0.958 | > 5.12 | 0.879 | > 10.2 | – | – | 0.967 | > 20 | 0.911 | > 10 | 0.45 | 0.0452 | 0.694 | 4.56 | 0.975 | > 10 | 0.56 | 0.0946
MG-63 (osteosarcoma, adherent) | 0.406 | 132 | 0.982 | > 5.12 | 0.984 | > 10.2 | – | – | 0.981 | > 20 | 0.878 | > 10 | 0.912 | > 1 | 0.983 | > 20 | 0.94 | > 10 | 0.393 | 0.031

From the supplement of paper PMC4967469
